# The source gives no read counts; variants with many changes may rest on few reads.
# B1: LINE1-mini (parent)
# chain: GGCAGAGCUCAACACAGCGUGGCAAAGUGGCUGUGGCUAGACUGCC
# Variants of: B1
# Assay: self-cleavage, relative activity (ratio to wild type); higher = more cleavage; in vitro, sequencing; the parent is a self-cleaving ribozyme
row,Variant,self-cleavage
1,GGCAGAGCUCAACAAAGCGUGGCAUAGUGGGUGUGGCUAGACUGCC [C15A A25U C31G],0.02
2,GGCAGAGCUCAACUCAGCGAGGCAAAGUGGCUGUGGUUAGACUGCC [A14U U20A C37U],0.01
3,GGCAGAGCUCAACUCAGCGAGGAAAAGUGGCUGUGGCAAGACUCCC [A14U U20A C23A U38A G44C],0.11
4,GGCAGAGCUCAACUCAGCGUGGCAAAGUGGCUGGGGCCAGACUGCC [A14U U34G U38C],0.45
5,GGCAGAGCUCAACAAAGCGUGGCCAAGUGGCGGUGGCUAGACUGCC [C15A A24C U32G],0.01
6,GGCAGAGCUCAACAAUGCGUGGCAACGUGGCUGUCGCUAGACUGCC [C15A A16U A26C G35C],0.03
7,GGCAGAGCUCAACAAAGCGUGGCUAAGUAGUUGUGGCUAGACAGCC [C15A A24U G29A C31U U43A],0.04
8,GGCAGAGCUCAACUCAGCGAGGCAAAUUGGCUGUGGCUAGACUGCC [A14U U20A G27U],1.12
9,GGCAGAGCUCAACAAAGCGUGGCGAAGUGGCCGUGGCCAGACUGCG [C15A A24G U32C U38C C46G],0.06
10,GGCAGAGCUCAACAAAGCGUGGCAGAAUGGCUGUGGCUAGACUGCC [C15A A25G G27A],0.12
11,GGCAGAGCUCAACUCAGCGUGGCAAAGUGGCAGUAGCUAGAUUGCC [A14U U32A G35A C42U],0.41
12,GGCAGAGCUCAACAAAGCGUGGCCAAGGGGUUGUGGCUAGACUGCC [C15A A24C U28G C31U],0.01
13,GGCAGAGCUCAACAAAGCGUGGCCAAGUGGCUGGGGCUAGACUGCC [C15A A24C U34G],0
14,GGCAGAGCUCAACAAUGCGUGGCAGAGUGGCUGUAGGUAGACUGCC [C15A A16U A25G G35A C37G],0.27
15,GGCAGAGCUCAACAACGCGUGGCAAAGUGGUUGUGGGUAGACUGCC [C15A A16C C31U C37G],0
16,GGCAGAGCUCAACAAAGCGUGGCACAGUGGCUGUGGCUAGACUGCG [C15A A25C C46G],0.02
17,GGCAGAGCUCAACAAAGCGUGGCCAAGUGGCUGGGGCCAGACUGCC [C15A A24C U34G U38C],0.02
18,GGCAGAGCUCAACAAGGCGUGGAAAAGUGGCUGUGGCUAGAGUGCC [C15A A16G C23A C42G],0.1
19,GGCAGAGCUCAACAAAGCGUGGCACAGUAGCUGUGGCUAGACUGCC [C15A A25C G29A],0.03

row,Variant,self-cleavage
1,GGCAGAGCUCAACAAAGCGUGGCUAAGAGGCUGUGCCUAGACUGCC [C15A A24U U28A G36C],0
2,GGCAGAGCUCAACUCAGCGUGGCAAAGUGGCUGGGGAUAGACUGCG [A14U U34G C37A C46G],0
3,GGCAGAGCUCAACAACGCCUGGCAGAGUGUCUGUGGCUAGACUGCC [C15A A16C G19C A25G G30U],0.02
4,GGCAGAGCUCAACUCAGCGUGGCAAAGUGGCCGUGGCAAGACUGCC [A14U U32C U38A],0.06
5,GGCAGAGCUCAACAAAGCGUGGCGAAGUCGCUGUGGCUAGACUGCC [C15A A24G G29C],0.36
6,GGCAGAGCUCAACAACGCUUGGCAAAGUGGCUGUGGCUAGACUGCC [C15A A16C G19U],0.05
7,GGCAGAGCUCAACAAAGCGUGGCACUGUGGCUCUCGCUAGACUGCC [C15A A25C A26U G33C G35C],0.04
8,GGCAGAGCUCAACAAAGCGUGGCCAAGUUGCUGUGGCGAGACCGCC [C15A A24C G29U U38G U43C],0.01
9,GGCAGAGCUCAACUCAGCGCGGCAAAGUGGCUGUGGUUGGGCUGCC [A14U U20C C37U A39G A41G],0.01
10,GGCAGAGCUCAACAAAGCGUGGCGUAGUGGCUGUGUCUAUACUGCC [C15A A24G A25U G36U G40U],0.09
11,GGCAGAGCUCAACAAAGCGUGGCCAAGUGGCUGUGGCUAGACUUCC [C15A A24C G44U],0.02
12,GGCAGAGCUCAACAAAGCGUGGCACAGUGGCUGUCGCUAGACUGCC [C15A A25C G35C],0.04
13,GGCAGAGCUCAACAAAGCGUGGCUAAGUGGCUGUGGCUAGAUUGCC [C15A A24U C42U],0.01
14,GGCAGAGCUCAACAACGCGUGGCAAAGUGGCUGUGGCUAGACUUCC [C15A A16C G44U],0.14
15,GGCAGAGCUCAACAAUGGGUGGCGAUGUGGCUGUGGCUAGACUGCC [C15A A16U C18G A24G A26U],0.03
16,GGCAGAGCUCAACUCAGCGAGGCGAAAUGGCUGUGGCUAGACUGCA [A14U U20A A24G G27A C46A],0.35
17,GGCAGAGCUCAACAAAGCGUGGCACAUUGGCUGUGACUAGACUCCC [C15A A25C G27U G36A G44C],0.03
18,GGCAGAGCUCAACUCAGCGCGUCUAACGGGCUUUUGCUAGACUGCC [A14U U20C G22U A24U G27C U28G G33U G35U],0.01
19,GGCAGAGCUCAACAAAGCGUGGCAUAGUGGCUGUGGCCAGACUGCC [C15A A25U U38C],0.04

row,Variant,self-cleavage
1,GGCAGAGCUCAACAAGGCGUGGCAAAGUGGCUGUGGCUUGAGUGCC [C15A A16G A39U C42G],0
2,GGCAGAGCUCAACAAGGCGUGGCAAAGUUGCUGUGGCUAGACUGCC [C15A A16G G29U],0.01
3,GGCAGAGCUCAACUCAGCGUGGCAAAGUGGCGGUGGCUGGACUGCC [A14U U32G A39G],0.04
4,GGCAGAGCUCAACAAAGCGUGGCUAAGUGGCUGUGGUUAGACUGCC [C15A A24U C37U],0.03
5,GGCAGAGCUCAACAAAGCGUGGCAGUGUGGCUGGGGCUAGACUUGC [C15A A25G A26U U34G G44U C45G],0
6,GGCAGAGCUCAACUCAGCGCGGCUAAGUGGCUGUUGCUAGCCUGCC [A14U U20C A24U G35U A41C],0
7,GGCAGAGCUCAACAACGGGUGGCAAAGUGGCUGUGGCUAGACUGCG [C15A A16C C18G C46G],0.01
8,GGCAGAGCUCAACUCAGCGUGGCAAAGUGGCAGUGGCCAGACUGCC [A14U U32A U38C],0.02
9,GGCAGAGCUCAACAAAGCGUGGCUAAGCGGCUGUGGGUAGACUGCC [C15A A24U U28C C37G],0.07
10,GGCAGAGCUCAACAAAGCGUGGCCAAGUGGCUGUGGGAAGACUGCC [C15A A24C C37G U38A],0.02
11,GGCAGAGCUCAACUCAGCGUGGCAAAGAUACUGUGGCUAGACUGCC [A14U U28A G29U G30A],0.41
12,GGCAGAGCUCAACAAAGCGUGGCAGAGUGGCUGUGGCUAGACUGGA [C15A A25G C45G C46A],0.02
13,GGCAGAGCUCAACAAUGCUUGGCAAAGUGGCUGUGGCUAGACUGCC [C15A A16U G19U],0.04
14,GGCAGAGCUCAACUCAGCGUGGCAAAGUGGCCGUGUCUAGACUGCC [A14U U32C G36U],0.03
15,GGCAGAGCUCAACAACGCGUGGCUAAGUCGCUGUGGCUAGACUGCC [C15A A16C A24U G29C],0.04
16,GGCAGAGCUCAACAAAGCGUGGCGAAGUGACUGUGGCUAGACUGCC [C15A A24G G30A],0.05
17,GGCAGAGCUCAACAAAGCGUGGCAGAGGGGCUGUGGCUAGACUGCC [C15A A25G U28G],0.03
18,GGCAGAGCUCAACUCAGCGAGGCAAAGUGGCUGUGGCUACGCUGCC [A14U U20A G40C A41G],0.01

# Source: the RNAGym collection of RNA variant scans (doi:10.7554/elife.90254)
